Some of these densities may be calculated back from excess volumes.
Assay: xn = mol fraction of the nth substance listed
Settings: 100 kPa

Cc1ccccc1 + CCCCCC[N+]1(C)CCCC1.O=S(=O)([N-]S(=O)(=O)C(F)(F)F)C(F)(F)F
x1 = 1
Settings | mass density [kg/m3]
293.15 K | 866.9
298.15 K | 862.2
303.15 K | 857.5
313.15 K | 848.2

Cc1ccccc1 + CCCC[N+]1(C)CCCC1.O=S(=O)([N-]S(=O)(=O)C(F)(F)F)C(F)(F)F
x1 = 1
Settings | mass density [kg/m3]
293.15 K | 866.9
298.15 K | 862.2
303.15 K | 857.5
313.15 K | 848.2

Cc1ccccc1 + CCCC[n+]1ccccc1.O=S(=O)([N-]S(=O)(=O)C(F)(F)F)C(F)(F)F
x1 = 1
Settings | mass density [kg/m3]
293.15 K | 866.9
298.15 K | 862.2
303.15 K | 857.5
308.15 K | 852.9
313.15 K | 848.2

CCCCCC[N+]1(C)CCCC1.O=S(=O)([N-]S(=O)(=O)C(F)(F)F)C(F)(F)F + Cc1ccccc1
mass density [kg/m3]
Settings | x2 = 0 | x2 = 0.0942 | x2 = 0.1943 | x2 = 0.29 | x2 = 0.3938 | x2 = 0.493 | x2 = 0.5961 | x2 = 0.6986 | x2 = 0.7993
293.15 K | 1339.5 | 1325.7 | 1309 | 1290.1 | – | 1237.1 | 1199.6 | 1150.9 | –
298.15 K | 1335.2 | 1321.4 | 1304.7 | 1285.8 | 1261.4 | 1232.8 | 1195.2 | 1146.4 | 1081.3
303.15 K | 1331 | 1317.2 | 1300.4 | 1281.5 | 1257.1 | 1228.4 | – | 1141.9 | 1076.8
308.15 K | 1326.8 | 1312.9 | 1296.2 | – | 1252.8 | 1224 | 1186.3 | 1137.4 | –
313.15 K | – | 1308.7 | 1291.9 | 1272.9 | 1248.4 | 1219.7 | 1181.9 | 1132.9 | 1067.6

CCCC[N+]1(C)CCCC1.O=S(=O)([N-]S(=O)(=O)C(F)(F)F)C(F)(F)F + Cc1ccccc1
mass density [kg/m3]
Settings | x2 = 0 | x2 = 0.1093 | x2 = 0.1978 | x2 = 0.3041 | x2 = 0.3965 | x2 = 0.5054 | x2 = 0.6027 | x2 = 0.7066
293.15 K | 1398.4 | 1378.2 | 1359.5 | 1333.5 | 1306.4 | 1268 | 1225.1 | 1166.4
298.15 K | – | 1373.8 | 1355 | 1329 | 1301.9 | – | – | 1161.8
303.15 K | 1389.5 | 1369.3 | 1350.6 | – | – | 1259 | 1216 | 1157.2
308.15 K | 1385.1 | 1364.9 | 1346.1 | 1320.1 | 1293 | 1254.5 | 1211.4 | 1152.6
313.15 K | – | 1360.5 | 1341.7 | – | – | 1250 | 1206.9 | –

CCCC[n+]1ccccc1.O=S(=O)([N-]S(=O)(=O)C(F)(F)F)C(F)(F)F + Cc1ccccc1
mass density [kg/m3]
Settings | x2 = 0 | x2 = 0.0994 | x2 = 0.2022 | x2 = 0.2939 | x2 = 0.3972 | x2 = 0.5025 | x2 = 0.6068 | x2 = 0.7033
293.15 K | 1452.8 | 1431.6 | 1406.4 | 1380.5 | – | 1304.1 | – | 1191.8
298.15 K | – | 1426.9 | 1401.7 | 1375.8 | 1341.5 | – | 1247.7 | 1187.1
303.15 K | 1443.4 | 1422.2 | 1397.1 | – | 1336.8 | 1294.7 | 1242.9 | 1182.3
308.15 K | 1438.7 | 1417.4 | 1392.4 | 1366.5 | – | – | 1238.2 | 1177.6
313.15 K | 1434.1 | 1412.7 | 1387.7 | 1361.8 | – | 1285.3 | – | 1172.8
